# Measurements from PubChem BioAssay AID588342 (National Center for Advancing Translational Sciences (NCATS), 2011).
# Several values for one entry are separate records, joined by “and”; a condition that tells them apart may be missing. Identical values can stand only once. Hit rate of the full screen: of about 360,000 compounds, about 25,000 (6.9%) were called active. The inconclusive results got no clear call from the source; some entries with a clear call stand among them for comparison. Calls follow the shape of the dose curve; as a rule, active = well fitted inhibition curve with a large enough effect; inconclusive = small, poorly fitted or top-dose-only effect; inactive = flat fitted curve, though single readings scatter. A potency beside an inconclusive call is a rough fit, not a confirmed value.
# Biological target: Luciferin 4-monooxygenase (Photinus pyralis) (UniProt P08659)
# Chain of UniProt P08659 (P08659 whole entry, looked up): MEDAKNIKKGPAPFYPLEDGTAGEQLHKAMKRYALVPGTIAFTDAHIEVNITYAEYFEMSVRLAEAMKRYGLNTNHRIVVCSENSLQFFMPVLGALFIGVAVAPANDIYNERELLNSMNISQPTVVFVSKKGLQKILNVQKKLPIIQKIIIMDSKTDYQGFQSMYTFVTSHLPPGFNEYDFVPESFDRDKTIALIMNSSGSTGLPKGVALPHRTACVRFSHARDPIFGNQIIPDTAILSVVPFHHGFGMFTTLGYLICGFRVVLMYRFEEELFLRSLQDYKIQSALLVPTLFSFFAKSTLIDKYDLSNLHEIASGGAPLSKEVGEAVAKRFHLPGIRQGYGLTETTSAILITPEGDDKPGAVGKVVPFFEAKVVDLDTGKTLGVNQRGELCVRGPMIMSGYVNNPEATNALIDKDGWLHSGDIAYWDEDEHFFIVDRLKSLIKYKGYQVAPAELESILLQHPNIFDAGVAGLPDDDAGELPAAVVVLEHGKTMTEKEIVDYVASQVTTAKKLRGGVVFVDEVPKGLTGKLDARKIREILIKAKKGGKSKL
# Assay: qHTS profiling assay for firefly luciferase inhibitor/activator using purifed enzyme and Km concentrations of substrates (counterscreen for miR-21 project); also: nearly all actives have a fitted effect of over 55% in size
# Conditions: purified FLuc, luminescence inhibition; series mostly up to 57.5 µM
# Summary of the method: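 Purified P. pyralis luciferase (10nM final) with 10uM D-luciferin and 10uM ATP (Km levels) in 50mM Tris acetate pH 7.5, 10mM Mg acetate, 0.01% Tween-20, 0.05% BSA; qHTS 6-point titration, ~60 µM downward; luminescence read.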
# Potency is read from the fitted curve at half-maximal effect; tags tell the direction and shape of the fitted curve.
row,SMILES,Potency
1,O=C1CN(C(=O)COC(=O)c2ccc(N3CCCCCC3)c([N+](=O)[O-])c2)c2ccccc2N1,"inconclusive: 19 µM [inhibitor, partial curve, poor fit]"
2,O=C(O)Cc1ccc(NC(=O)c2cccc(NC(=O)c3ccco3)c2)cc1,active: 16.9 µM
3,CCN=c1scc(-c2ccccc2)n1/N=C/c1ccccn1,active: 0.601 µM
4,CCOC(=O)CNC(=O)N1CCc2ccc(NC(=O)c3ccccc3OC)cc2C1,"inconclusive: 23.9 µM [inhibitor, partial curve, poor fit]"
5,CC(C)c1cc(C(N)=O)c(NC(=O)c2cccc(COc3ccc(Br)cc3)c2)s1,active: 19 µM
6,O=C(O)CCc1ccc(-c2cccs2)n1CC(=O)Nc1ccccc1C(F)(F)F,"inconclusive: 26.9 µM [inhibitor, partial curve, poor fit] and inconclusive: 16.9 µM [inhibitor, partial curve, poor fit]"
7,O=c1c2c3c(sc2ncn1/N=C/c1ccncc1)CCCC3,"inconclusive: 23.9 µM [inhibitor, single point]"
8,COc1ccccc1C(=O)OCc1c(F)cccc1Cl,"inconclusive: 37.9 µM [inhibitor, partial curve, poor fit]"
9,CN(C)CCN(C(=O)c1ccc(S(=O)(=O)N(C)c2ccccc2)cc1)c1nc2ccc(Cl)cc2s1,inactive
10,COc1ccc(C(=O)Nc2ccc(CN3CCCCC3)cc2)cc1,"inconclusive: 37.9 µM [inhibitor, partial curve, poor fit]"
11,O=C(NCCc1ccccc1)c1ccc2c(c1)OCCO2,active: 0.135 µM
12,C=CCOc1ccc(/C=C2/C(=O)ON=C2C)cc1OC,"inconclusive: 37.9 µM [inhibitor, partial curve, poor fit]"
13,Cc1ccc(-c2cn(-c3ccc(OC(F)F)cc3)c3[n+]2CCCCC3)cc1,inactive
14,COc1ccc(NC(=O)N(Cc2cc3ccc(OC)cc3[nH]c2=O)CC2CCCO2)cc1 (configuration not stated),"inconclusive: 30.1 µM [inhibitor, partial curve, poor fit]"
15,Cc1ccc(S(=O)(=O)N2CCOCC2)cc1C(=O)Nc1ccc(-c2cn3ccsc3n2)cc1,"inconclusive: 30.1 µM [inhibitor, partial curve, poor fit]"
16,Cc1cccc(/C(N)=N/OC(=O)c2ccoc2C)c1,active: 3.79 µM
17,CN(C)c1ccc(/C=C(\C#N)c2ccccn2)cc1,active: 0.239 µM
18,O=C(NCc1ccco1)/C(=C\c1ccc(F)cc1)NC(=O)c1ccco1,inactive
19,Cc1cc(O)c(NC(=O)c2ccco2)cc1C,active: 30.1 µM
20,CCN(CC)S(=O)(=O)c1cc(NC(=O)CSc2nccn2C)ccc1C,"inconclusive: 33.8 µM [inhibitor, partial curve, poor fit]"
21,CN(C)c1ccc(/C=N/N2CCN(Cc3ccccc3Cl)CC2)cc1,"inconclusive: 37.9 µM [inhibitor, partial curve, poor fit]"
22,O=S(=O)(Nc1cc(C(F)(F)F)ccc1N1CCOCC1)c1ccc2ccccc2c1,inactive
23,CC(C)(C)OC(=O)NCCCCCNC(=O)c1[nH]cnc1C(=O)Nc1ccccc1,"inconclusive: 26.9 µM [inhibitor, single point]"
24,COc1ccc(/C(N)=N/OC(=O)C2CCCCC2)cc1OC,"inconclusive: 3.01 µM [inhibitor, single point]"

row,SMILES,Potency
1,COc1ccc(CCC(=O)Nc2ccc3c(c2)OCCO3)cc1,"inconclusive: 12 µM [inhibitor, partial curve, poor fit]"
2,Cc1ccc(C)c(N/N=C2\CCCNC2=O)c1,"inconclusive: 15.1 µM [inhibitor, partial curve]"
3,O=C(NCCCn1ccnc1)c1cc2c(ccc3ccccc32)o1,"inconclusive: 37.9 µM [inhibitor, single point]"
4,Cc1cccc(C(=O)OCC(=O)c2c(C)[nH]c3ccccc23)c1O,"inconclusive: 3.38 µM [inhibitor, full curve]"
5,CCOc1ccc2nc(NC(=O)C3CSC4(C)CCC(=O)N34)sc2c1 (configuration not stated),active: 21.3 µM
6,CCC(=O)NCCc1nc2cc(NC(=O)c3cccc([N+](=O)[O-])c3)ccc2n1C,"inconclusive: 21.3 µM [inhibitor, partial curve]"
7,O=C(CS(=O)(=O)c1nc(-c2ccc(Cl)cc2)cn1-c1ccccc1)Nc1ccc(F)cc1F,active: 21.3 µM
8,CCn1c(/N=C/c2ccc(OC)cc2O)nc2ccccc21,active: 0.953 µM
9,COC(=O)c1[nH]c2ccccc2c1NC(=O)Oc1ccccc1,"inconclusive: 21.3 µM [inhibitor, partial curve, poor fit]"
10,O=c1c2ccccc2nnn1CSc1ccc2c(c1)OCCO2,active: 9.53 µM
11,COCc1cc(C)nc2sc3c(c12)NC(c1ccccc1C(=O)O)N(c1ccc(OC)cc1)C3=O (configuration not stated),"inconclusive: 12 µM [inhibitor, partial curve]"
12,CC(=O)c1ccc(NC(=O)COc2ccccc2-c2nc(-c3ccccc3)no2)cc1,inactive
13,COc1cccc(N2CCN(C(=O)CCNS(=O)(=O)c3ccc4c(c3)c(=O)n(C)c(=O)n4C)CC2)c1,inactive
14,CCN(CC)c1ccc(/C=C2\C(=N)N3N=C(CC(=O)N4CCOCC4)SC3=NC2=O)cc1,active: 26.9 µM
15,Cc1ccc(S(=O)(=O)N2CCOCC2)cc1C(=O)OCC(=O)N1CCc2ccccc2C1,"inconclusive: 16.9 µM [inhibitor, partial curve]"
16,COCCCNC(=O)COc1ccc(Br)cc1Cl,"inconclusive: 16.9 µM [inhibitor, single point]"
17,CC(C)(C)Cc1nnc(NC(=O)c2ccco2)s1,"inconclusive: 37.9 µM [inhibitor, single point]"
18,Cc1ccc(N=Cc2nc(-c3ccc(C)cc3)oc2O)cc1,inactive
19,Cc1nn(C)cc1CNC(=O)Nc1ccc(Cl)cc1,"inconclusive: 16.9 µM [inhibitor, partial curve]"
20,c1c2c(cc3sc(N4CCCCC4)nc13)OCO2,active: 0.675 µM
21,COc1ccc(N(C(=O)COc2ccccc2OC)S(=O)(=O)c2ccc(Cl)cc2)cc1,inactive
22,O=C(/C=C\c1cn(-c2ccccc2)nc1-c1ccccc1)Nc1nccs1,"inconclusive: 1.69 µM [inhibitor, full curve]"
23,O=C(Nc1cccnc1)c1cc(-c2cccc(Br)c2)nc2ccccc12,"inconclusive: 21.3 µM [inhibitor, single point]"
24,Cc1ccc(C(=O)N/N=C/C=C/c2ccccc2)cc1,"inconclusive: 21.3 µM [inhibitor, single point]"

row,SMILES,Potency
1,O=C(O)/C=C/C(=O)Nc1ccc(SC(F)(F)C(F)(F)C(F)(F)F)cc1,"inconclusive: 23.9 µM [inhibitor, single point]"
2,CNCCCOc1ccc2c(c1)CCC2,inactive
3,CCCCc1ccc(CC(=O)Nc2cc(S(=O)(=O)N3CCOCC3)ccc2O)cc1,inactive
4,COc1ccccc1C(=O)Nc1ccc(S(=O)(=O)N2CCCCC2c2cccnc2)cc1 (configuration not stated),inactive
5,COc1ccccc1C1CCN(C(=O)c2ccco2)CC1,inactive
6,COc1ccc(OCc2cc(C(=O)NCc3nc(C)cs3)no2)c(Cl)c1,active: 13.5 µM
7,Cn1ccnc1C1CCCCN1Cc1nc(-c2ccc3c(c2)OCO3)no1 (configuration not stated),inactive
8,O=C(CSc1nnc(-c2ccco2)c(-c2ccco2)n1)Nc1ccccc1,"inconclusive: 12 µM [inhibitor, partial curve]"
9,COc1cc(C(=O)NCC(=O)N2CCN(S(=O)(=O)c3ccccc3)CC2)cc(OC)c1OC,inactive
10,O=C(CSCc1ccccc1)Nc1ccccc1C(=O)Nc1ccc(C(=O)O)cc1,"inconclusive: 26.9 µM [inhibitor, partial curve, poor fit]"
11,CCOC(=O)c1cc(-c2ccccc2)nn1Cc1cc(CC)no1,"inconclusive: 19 µM [inhibitor, partial curve]"
12,COc1ccc(S(=O)(=O)Nc2cccc(-c3ccc(N4CCCC4)nn3)c2)cc1OC,active: 16.9 µM
13,N#Cc1c(Nc2cccc(F)c2)sc(C(=O)c2ccc(Cl)cc2)c1N,"inconclusive: 21.3 µM [inhibitor, partial curve, poor fit]"
14,Cc1ccc(Oc2ccccc2NC(=O)C2=COCCO2)cc1,inactive
15,COCCNC(=O)Cn1c(=O)oc2cc(S(=O)(=O)N3CC(C)CC(C)C3)ccc21 (configuration not stated),inactive
16,COc1ccc(-c2nnc(SC)o2)c(OC)c1,"inconclusive: 21.3 µM [inhibitor, partial curve, poor fit]"
17,Cc1cc(Br)ccc1OCC(=O)NC1CCCC1,"inconclusive: 26.9 µM [inhibitor, partial curve, poor fit]"
18,Cc1c(/C=N/NC(=O)c2ccc(O)cc2)c2ccccn2c1C(=O)c1ccc(F)cc1,"inconclusive: 2.69 µM [inhibitor, full curve]"
19,N#Cc1cc2c([nH]c1=S)CCCCCC2,"inconclusive: 21.3 µM [inhibitor, partial curve, poor fit]"
20,CCCN1C(=O)c2ccc(C(=O)Nc3ccc4c(c3)OCO4)cc2C1=O,"inconclusive: 1.69 µM [inhibitor, partial curve, poor fit]"
21,O=C1c2ccccc2C(=O)N1CC(O)COc1ccc(Cl)cc1 (configuration not stated),"inconclusive: 26.9 µM [inhibitor, partial curve]"
22,O=C(NCCSCc1ccco1)Nc1ccc(Cl)cc1,active: 10.7 µM
23,CCCCN1C(C)=CC(=C2C(=O)c3ccccc3C2=O)C=C1C,active: 1.51 µM
24,O=C(CSC1=Nc2ccccc2N=C(c2ccc(F)cc2)C1)NCc1ccc(Cl)cc1,inactive
